# Variants at the background level are over-represented here.
# B1: glmS ribozyme (parent)
# chain: AUAAAAGCGCCAGAACUACAGAAAUGUAGUUGACGAGGAGGAGGUUUAUCGAAUUUUCGGCGGAUGCCUCCAAA
# Variants of: B1
# Experiment: self-cleavage kobs at 2500 uM GlcN6P; higher = faster cleavage; RNA array
# Settings: with glucosamine-6-phosphate
# How it was run: (§1)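 On sequenced MiSeq chips, barcoded ribozyme variants were made in situ by E. coli RNA polymerase and followed at 37 °C through a hybridised Cy3 probe. Glucosamine-6-phosphate was flowed in at 40 μM to 10 mM in HEPES/KCl/Mg(OAc)2 buffer. Exponential fits to normalised per-tile medians gave kobs, and weighted Michaelis–Menten fits gave kcat and KM.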
row,Variant,self-cleavage kobs at 2500 uM GlcN6P [s⁻¹]
1,A6U G9A C68U,< 1e-05
2,A6U U30A A33U A48G,< 1e-05
3,A6U U45A C58A G62A,< 1e-05
4,A6U U45G A48C A64C,< 1e-05
5,G7A A15C G32A G60C,< 1e-05
6,G7A A42C C50A,< 1e-05
7,G7A C50A G63U,< 1e-05
8,G7A G9U,< 1e-05
9,G7A G13A C34U,< 1e-05
10,G7A G32A G43A C67U C68U,< 1e-05
11,G7A G38C C70U,< 1e-05
12,G7A G38U,< 1e-05
13,G7A G38U C71G,< 1e-05
14,G7A G44C A48G,< 1e-05
15,G7A U46C U49G A52U,< 1e-05
16,G7A U49A A52C,< 1e-05
17,G7A U54G G59A,< 1e-05
18,G7C A39U G41C U56C G60A C68A,< 1e-05
19,G7C A52C C61U,< 1e-05
20,G7C C8A U56C U65G,< 1e-05
21,G7C C8G A39U U47A A53U,< 1e-05
22,G7C C10U C61A,< 1e-05

row,Variant,self-cleavage kobs at 2500 uM GlcN6P [s⁻¹]
1,G7C C10U G44U G51U A64G U65G,< 1e-05
2,G7C C11A C16U,< 1e-05
3,G7C C16A U30A U49G G62C C71A,< 1e-05
4,G7C G13C U31G C67A,< 1e-05
5,G7C G35C A48C C58U,< 1e-05
6,G7C G35U A53C U55C C67U,< 1e-05
7,G7C G38U U54C U56A C71U,< 1e-05
8,G7C G62U C68G,< 1e-05
9,G7C U45C G59C,< 1e-05
10,G7C U47C U49G,< 1e-05
11,G7U A12C A14G U45G,< 1e-05
12,G7U A14C U49C A64G C71U,< 1e-05
13,G7U A14U U46A A53U C61A,< 1e-05
14,G7U A33U G60C,< 1e-05
15,G7U C10G G59U,< 1e-05
16,G7U C11A G37C C67U C71A,< 1e-05
17,G7U C11U A53C,< 1e-05
18,G7U C16A U31C A39U U46A,< 1e-05
19,G7U C67A C68A,< 1e-05
20,G7U G13A G38A U55A,< 1e-05
21,G7U G35C G59C,< 1e-05
22,G7U G35U U45A A53C,< 1e-05

row,Variant,self-cleavage kobs at 2500 uM GlcN6P [s⁻¹]
1,G7U G51U G63C,< 1e-05
2,G7U G66C,< 1e-05
3,G7U U46C A48G C50U U55G,< 1e-05
4,C8A A33C A42G U65G,< 1e-05
5,C8A A33U G44U U55A U57G,< 1e-05
6,C8A A36U C58G C71U,< 1e-05
7,C8A A53C C70U,< 1e-05
8,C8A C11U G13C,< 1e-05
9,C8A C16A G38A A53G,< 1e-05
10,C8A C16G G38A A64G C68A,< 1e-05
11,C8A C68U,< 1e-05
12,C8A G13A A15G G40U G43U,< 1e-05
13,C8A G13U A53G U65G,< 1e-05
14,C8A G29U C61U,< 1e-05
15,C8A G32U G43A,< 1e-05
16,C8A G37A G43U,< 1e-05
17,C8A G40A G51C C58U,< 1e-05
18,C8A G44U U55A,< 1e-05
19,C8G A14U A64G,< 1e-05
20,C8G A15U G35C G37C A42C,< 1e-05
21,C8G A33U G38U A64C,< 1e-05
22,C8G A42G G66U,< 1e-05

row,Variant,self-cleavage kobs at 2500 uM GlcN6P [s⁻¹]
1,C8G C16G G63U,< 1e-05
2,C8G C16G U56A,< 1e-05
3,C8G G13A U69G,< 1e-05
4,C8G G13C C16G A52C,< 1e-05
5,C8G G29A A39U C70U C71U,< 1e-05
6,C8G G38C U54A G66A U69G,< 1e-05
7,C8G G38U U57G,< 1e-05
8,C8G G40A U45A,< 1e-05
9,C8G U30A G32U A52G,< 1e-05
10,C8G U30A G59C,< 1e-05
11,C8G U30G A48C,< 1e-05
12,C8G U31G G66A,< 1e-05
13,C8U A15C A64G,< 1e-05
14,C8U A48C G51A U69A,< 1e-05
15,C8U A48G G66U,< 1e-05
16,C8U C34A G59C,< 1e-05
17,C8U C34U U46G,< 1e-05
18,C8U G9U C10U U45C A48C C58U,< 1e-05
19,C8U G35A G37U A64U,< 1e-05
20,C8U G43U A53G,< 1e-05
21,C8U G51C C70G,< 1e-05

# Variants of: B1
# Experiment: self-cleavage kobs at 10000 uM GlcN6P; higher = faster cleavage; RNA array
# Settings: with glucosamine-6-phosphate
# How it was run: as §1
row,Variant,self-cleavage kobs at 10000 uM GlcN6P [s⁻¹]
1,G7A C50A G63U,< 1e-05
2,G7U G66C,< 1e-05
3,G7U U46C A48G C50U U55G,< 1e-05
4,C8G G38C U54A G66A U69G,< 1e-05

# — the supplement of paper PMC7125110
